Sequences with one replicate were seen in a single cluster, so their values are uncertain.
System: ATP
Test: switch fluorescence ratio, 500 uM ATP over buffer (Cy3 cluster intensity, sum of 5 cycles each) (fold (ratio)); higher = stronger signal-on switching upon ATP binding; sequences stand for … in TCGTCGGCAGCGTCAGATGTGTATAAGAGACAGTTTTTTTTTTTTTTTTTTTTTTTTT…TC
Details: aptamer strand: ATP DNA aptamer (quencher-CACCTGGGGGAGTATTGCGGAGGAAGG + anchor), 100 nM annealed; ATP concentration: 500 uM; one replicate
Procedure, shortened: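 Values give the fluorescence ratio for each switch-domain sequence, averaged from per-cluster ratios of summed target-cycle to summed buffer-cycle Cy3 intensity. The Cy3-labelled switching-strand clusters sat on a modified Illumina MiSeq flow-cell, were annealed to 100 nM quencher-labelled ATP aptamer, and were imaged in selection buffer, then after 15 min with 500 uM ATP at 22 °C. Five cycles ran with NaOH stripping and re-annealing between them, and clusters outside 100-1000 RFU were excluded.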
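Note: ATP exposure 15 min at 22 °C before imaging.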

| Sequence | switch fluorescence ratio |
| --- | --- |
| CATGGTATGG | 0.953 |
| CCTAGTTCCT | 1.03 |
| GGTTAAGAGT | 0.961 |
| AACATCGGC | 0.974 |
| GGGGCACGAG | 1 |
| GGATCTCTTG | 0.986 |
| CTGACTCATT | 1.22 |
| GGGTTTGCAA | 1 |
| ATGTTGCGCT | 1 |
| CTATGTATCG | 0.973 |
| TGACGAGACA | 1.08 |
| TTGTGTCGTC | 0.988 |
| CACTTGAGG | 1.02 |
| AACAAGGATC | 0.971 |
| CTGCCCTTGG | 1.11 |
| CCGACCCTTA | 2.49 |
| CTAGAAGATC | 0.994 |
| GTTCCGTAGA | 1.13 |
| AGGTATGTGC | 0.975 |
| ATTCGGACAC | 1.07 |
| CGGTACTAGT | 0.932 |
| TGTGGAGGGT | 0.98 |
| GGCCCAGTGG | 1.1 |
| CGAGAGAATG | 1.03 |
| TGCCTGAGGA | 0.995 |
| CGGGTACCAA | 1.06 |

| Sequence | switch fluorescence ratio |
| --- | --- |
| ATCGGTTATA | 0.993 |
| AAAGTATATC | 0.978 |
| CGGAGTACT | 1.25 |
| CTGGGCTGAC | 1.36 |
| AGATACGT | 1.01 |
| CACGACGTGG | 1 |
| GAACCTACCT | 2.02 |
| CCGTCGATTC | 2.7 |
| TGGCTCAGCA | 1.13 |
| TAGAAGTAAA | 0.972 |
| ATTGTGCCGT | 1.02 |
| ATCTAGACCG | 0.985 |
| ATTATAGAAA | 0.955 |
| TAAGTGACTT | 1.01 |
| ATTACGCTT | 1.08 |
| TGCAAGACGG | 1.44 |
| AATAACCA | 1.02 |
| CAAATGCATC | 1.06 |
| TCAAAAGGCA | 0.994 |
| CTAGGCCTAT | 0.964 |
| GTTTTGTGAA | 1 |
| CATTATTTCT | 0.987 |
| TTTAACTTCA | 0.983 |
| GATTCTTCTT | 0.995 |
| GGGCAATAGG | 1.16 |
| ATTCATCTAC | 0.977 |

| Sequence | switch fluorescence ratio |
| --- | --- |
| CCCGGGTAAA | 0.967 |
| CCTGTCTCAC | 1.05 |
| TACGCCGCGC | 2.66 |
| TCGTCCTTAT | 1.03 |
| CCGAATTAAA | 1.07 |
| CAGGGGCTAT | 1.02 |
| GTGGACATAA | 0.986 |
| CTTGAAACTC | 1.03 |
| TGTAGGCTAG | 0.987 |
| TGCGATTCCG | 1.05 |
| GAGAGTTCGC | 1.07 |
| CTTGTGGCTC | 0.939 |
| GCAATGGATT | 1.03 |
| TGATTAGGCC | 0.989 |
| CCTTTCAGTG | 1.04 |
| TATATGGCTT | 0.995 |
| ATGGCTCACT | 0.989 |
| TCTAGCAATT | 2.11 |
| GCGATACGGC | 1.9 |
| CTTCGCGGGT | 3.4 |
| TATGTGTTG | 0.97 |
| TTGAATACAA | 1.01 |
| AAGTTGTCG | 1.07 |
| ACGACCGTTA | 1.06 |
| GTCGGCCGAG | 0.962 |
| TTTTAAAAGC | 0.979 |

| Sequence | switch fluorescence ratio |
| --- | --- |
| ACTGCCGCTT | 1.25 |
| TTGCGACTGT | 0.995 |
| GGGATCTTCC | 1.66 |
| TCTGGCGCGG | 1.05 |
| TGGAATATAT | 0.975 |
| CTAATCAAAG | 1.03 |
| TTCAATAAGA | 1.02 |
| AAGCTTCGCT | 1.01 |
| CTGATTTACA | 1.02 |
| TCTAGAAGGG | 0.999 |
| TCGGTTACAG | 1 |
| TTGTGGCTCC | 0.996 |
| CCATGCTTAC | 4.85 |
| GAAGGTGGCC | 0.996 |
| TTCAGCCGG | 1.11 |
| CGAAGGCATG | 1.05 |
| CGGTGGAGG | 1.01 |
| CGCACCTTGC | 1.39 |
| AGACTGACAC | 1.23 |
| CGAATGCGGC | 1.07 |
| CATTCCGGGC | 1.65 |
| CATAGACGT | 1.04 |
| TTTTACACCA | 1.09 |
| TGTTACTTG | 0.994 |
| GCGTTGAAGG | 1.06 |
| GTGCTAAG | 0.957 |

| Sequence | switch fluorescence ratio |
| --- | --- |
| AAGCACTGAG | 1.25 |
| AATTGTTAGC | 0.99 |
| GATGGGACTC | 1 |
| ACAGTACTCC | 1.63 |
| AGCTAGGGA | 0.964 |
| TGTTACGTTC | 0.993 |
| TGCCACTATA | 1.06 |
| TTAGAAGGTC | 0.974 |
| AGGGTACATG | 1.01 |
| TAATAACATA | 0.997 |
| CGCTGGGCAA | 1.79 |
| ACACAGAGTG | 1.03 |
| TGATGAAGCG | 0.988 |
| TGTTGGGCGT | 1.01 |
| CTGGAAGAAG | 0.945 |
| TATGGACCAT | 1 |
| TTATGGGAGC | 1.02 |
| CTTCTCTGAT | 0.956 |
| CAGGGCTAAG | 1.01 |
| GAATTATCAA | 0.987 |
| ATATCCTCCA | 1.09 |
| TTATTCTCCT | 1.02 |
| ACACCTTATG | 1.01 |
| CTTAGTTACC | 0.999 |
| ATTTCGGG | 0.98 |
| TTAGCGCTTA | 1.03 |

| Sequence | switch fluorescence ratio |
| --- | --- |
| GGAAATGAAA | 1.02 |
| TGTCTGGGAC | 1 |
| AAGGCAAAAA | 1.03 |
| GTAAACGGGA | 1.03 |
| TCCATTGAGC | 1.06 |
| CGCTCCTCCG | 5.54 |
| TGGGATTCCG | 0.989 |
| ATGAGGGTAT | 1.03 |
| AGATTACTCC | 1.26 |
| CGTTCCGCGG | 1.35 |
| ACGTTTGGAG | 1.01 |
| CAGCACAAAT | 1.04 |
| CAAATAGGCG | 0.983 |
| GGATATCGAC | 1.03 |
| GAACGCTA | 3.2 |
| ATATGAGGAC | 1 |
| TATAAACCCT | 1.14 |
| TTTTGTTCGA | 1.01 |
| AAGTATTATG | 0.995 |
| GATGACTGCA | 1.04 |
| TAAGCAGCTG | 1.01 |
| ATTCCCGTC | 1.06 |
| CAAAGCCTAG | 0.988 |
| TACCTTGAGG | 1.02 |
| CGTCGGCTGT | 1 |
| GCGGTGTACG | 0.985 |

| Sequence | switch fluorescence ratio |
| --- | --- |
| TGGAGCACGA | 1.23 |
| CTTAAGTACC | 1.41 |
| GCTCTCACTC | 1.08 |
| ATGATATCGT | 1.01 |
| AATCCCTTT | 0.975 |
| TATGGAAATC | 1.02 |
| CGGGCGGTTC | 0.984 |
| TGACGTCCTG | 1.06 |
| AAGTACGA | 1.23 |
| TGGTTAGTAT | 1.03 |
| CTAGAATTAA | 0.958 |
| AACGCAAATA | 2.78 |
| CAATCTAGAA | 1.01 |
| CCAGAGTTGT | 1.07 |
| GGCCAGGAAG | 1 |
| AAGGTTTCAC | 0.982 |
| ACCCGGTTA | 1.02 |
| GGCTCCCTCC | 1.37 |
| TATAAAACTC | 0.991 |
| CCGCCCTTGA | 1.29 |
| CAGGGACTAA | 1.01 |
| AGTATTTACC | 1.05 |
| CTCGAACGTG | 0.989 |
| AATTCCTGAG | 1.12 |
| CCGCGTTGGA | 1.07 |
| AAATGCAACG | 1.03 |

| Sequence | switch fluorescence ratio |
| --- | --- |
| AGAATACGGC | 1.12 |
| TTACACGGG | 1 |
| TGTGTATCGC | 1.02 |
| CGTGGATATA | 1.04 |
| AAGCGTGGAC | 0.998 |
| GTGACAGTCC | 1.04 |
| GATACGCTGT | 1.06 |
| GACCTCCATG | 1.01 |
| ATGGAAGAAG | 0.96 |
| ATCTAGATGG | 0.958 |
| CGTGCGGTGT | 0.971 |
| ATTCTAACTA | 0.944 |
| GTGCTCCCCG | 1.3 |
| TGGTGCCCAG | 1.03 |
| CAGGCTAAGC | 1.01 |
| GTGGGAGAAA | 0.975 |
| CGGCGTTTGG | 0.99 |
| AGGGATTTGC | 1.01 |
| AGGGTCGTCA | 1.06 |
